# Measurements as given in the supplement of paper PMC8728848.
# Some of the results follow.
# Key:
# Assay in all cases: glycan array binding signal (z-score within array); higher = stronger binding
# Conditions in all cases: glycan notation: IUPAC condensed, linker removed
# GlcNAc(b1-3)Gal(b1-4)Glc = molecular target: GlcNAc(b1-3)Gal(b1-4)Glc
# How it was run: (§1)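 Arrays were curated from the Consortium for Functional Glycomics database, 3228 in total, and kept only where the protein sequence was available. Binding is expressed as a within-array Z-score. This score was averaged across arrays of the same protein sequence at different concentrations or buffers and across linkers, and negative values can be read as non-binding.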
# [1] = molecular target: GlcNAc(b1-3)Gal(b1-4)GlcNAc
# How it was run: as §1
# [2] = molecular target: GlcNAc(b1-3)Gal(b1-4)GlcNAc(b1-2)Man(a1-3)[GlcNAc(b1-3)Gal(b1-4)GlcNAc(b1-2)Man(a1-6)]Man(b1-4)GlcNAc(b1-4)GlcNAc
# How it was run: as §1
# [3] = molecular target: GlcNAc(b1-3)Gal(b1-4)GlcNAc(b1-2)Man(a1-3)[GlcNAc(b1-3)Gal(b1-4)GlcNAc(b1-2)Man(a1-6)]Man(b1-4)GlcNAc(b1-4)[Fuc(a1-6)]GlcNAc
# How it was run: as §1
# [4] = molecular target: GlcNAc(b1-3)Gal(b1-4)GlcNAc(b1-2)[GlcNAc(b1-3)Gal(b1-4)GlcNAc(b1-6)]Man(a1-6)[GlcNAc(b1-3)Gal(b1-4)GlcNAc(b1-2)Man(a1-3)]Man(b1-4)GlcNAc(b1-4)GlcNAc
# How it was run: as §1
# [5] = molecular target: GlcNAc(b1-3)Gal(b1-4)GlcNAc(b1-3)Gal(b1-4)GlcNAc
# How it was run: as §1
# [6] = molecular target: GlcNAc(b1-3)Gal(b1-4)GlcNAc(b1-3)Gal(b1-4)GlcNAc(b1-2)Man(a1-3)[GlcNAc(b1-3)Gal(b1-4)GlcNAc(b1-3)Gal(b1-4)GlcNAc(b1-2)Man(a1-6)]Man(b1-4)GlcNAc(b1-4)GlcNAc
# How it was run: as §1
# [7] = molecular target: GlcNAc(b1-3)Gal(b1-4)GlcNAc(b1-3)Gal(b1-4)GlcNAc(b1-2)Man(a1-3)[GlcNAc(b1-3)Gal(b1-4)GlcNAc(b1-3)Gal(b1-4)GlcNAc(b1-2)Man(a1-6)]Man(b1-4)GlcNAc(b1-4)[Fuc(a1-6)]GlcNAc
# How it was run: as §1
# [8] = molecular target: GlcNAc(b1-3)Gal(b1-4)GlcNAc(b1-3)Gal(b1-4)GlcNAc(b1-2)[GlcNAc(b1-3)Gal(b1-4)GlcNAc(b1-3)Gal(b1-4)GlcNAc(b1-6)]Man(a1-6)[GlcNAc(b1-3)Gal(b1-4)GlcNAc(b1-3)Gal(b1-4)GlcNAc(b1-2)Man(a1-3)]Man(b1-4)GlcNAc(b1-4)[Fuc(a1-6)]GlcNAc
# How it was run: as §1
# [9] = molecular target: GlcNAc(b1-3)Gal(b1-4)GlcNAc(b1-3)Gal(b1-4)GlcNAc(b1-3)Gal(b1-4)GlcNAc(b1-2)Man(a1-3)[GlcNAc(b1-3)Gal(b1-4)GlcNAc(b1-3)Gal(b1-4)GlcNAc(b1-3)Gal(b1-4)GlcNAc(b1-2)Man(a1-6)]Man(b1-4)GlcNAc(b1-4)GlcNAc
# How it was run: as §1
# [10] = molecular target: GlcNAc(b1-3)Gal(b1-4)GlcNAc(b1-3)Gal(b1-4)GlcNAc(b1-3)Gal(b1-4)GlcNAc(b1-2)Man(a1-3)[GlcNAc(b1-3)Gal(b1-4)GlcNAc(b1-3)Gal(b1-4)GlcNAc(b1-3)Gal(b1-4)GlcNAc(b1-2)Man(a1-6)]Man(b1-4)GlcNAc(b1-4)[Fuc(a1-6)]GlcNAc
# How it was run: as §1
# [11] = molecular target: GlcNAc(b1-3)Gal(b1-4)GlcNAc(b1-3)Gal(b1-4)GlcNAc(b1-3)Gal(b1-4)GlcNAc(b1-2)[GlcNAc(b1-3)Gal(b1-4)GlcNAc(b1-3)Gal(b1-4)GlcNAc(b1-3)Gal(b1-4)GlcNAc(b1-6)]Man(a1-6)[GlcNAc(b1-3)Gal(b1-4)GlcNAc(b1-3)Gal(b1-4)GlcNAc(b1-3)Gal(b1-4)GlcNAc(b1-2)Man(a1-3)]Man(b1-4)GlcNAc(b1-4)[Fuc(a1-6)]GlcNAc
# How it was run: as §1
# [12] = molecular target: GlcNAc(b1-3)Gal(b1-4)GlcNAc(b1-3)Gal(b1-4)GlcNAc(b1-3)Gal(b1-4)GlcNAc(b1-3)Gal(b1-4)GlcNAc(b1-2)Man(a1-3)[GlcNAc(b1-3)Gal(b1-4)GlcNAc(b1-3)Gal(b1-4)GlcNAc(b1-3)Gal(b1-4)GlcNAc(b1-3)Gal(b1-4)GlcNAc(b1-2)Man(a1-6)]Man(b1-4)GlcNAc(b1-4)GlcNAc
# How it was run: as §1
# [13] = molecular target: GlcNAc(b1-3)Gal(b1-4)GlcNAc(b1-3)Gal(b1-4)GlcNAc(b1-3)Gal(b1-4)GlcNAc(b1-3)Gal(b1-4)GlcNAc(b1-2)Man(a1-3)[GlcNAc(b1-3)Gal(b1-4)GlcNAc(b1-3)Gal(b1-4)GlcNAc(b1-3)Gal(b1-4)GlcNAc(b1-3)Gal(b1-4)GlcNAc(b1-2)Man(a1-6)]Man(b1-4)GlcNAc(b1-4)[Fuc(a1-6)]GlcNAc
# How it was run: as §1
# [14] = molecular target: GlcNAc(b1-3)Gal(b1-4)GlcNAc(b1-3)Gal(b1-4)GlcNAc(b1-3)Gal(b1-4)GlcNAc(b1-3)Gal(b1-4)GlcNAc(b1-2)[GlcNAc(b1-3)Gal(b1-4)GlcNAc(b1-3)Gal(b1-4)GlcNAc(b1-3)Gal(b1-4)GlcNAc(b1-3)Gal(b1-4)GlcNAc(b1-6)]Man(a1-6)[GlcNAc(b1-3)Gal(b1-4)GlcNAc(b1-3)Gal(b1-4)GlcNAc(b1-3)Gal(b1-4)GlcNAc(b1-3)Gal(b1-4)GlcNAc(b1-2)Man(a1-3)]Man(b1-4)GlcNAc(b1-4)[Fuc(a1-6)]GlcNAc
# How it was run: as §1
# [15] = molecular target: GlcNAc(b1-3)Gal(b1-4)GlcNAc(b1-3)Gal(b1-4)GlcNAc(b1-3)GalNAc
# How it was run: as §1
# [16] = molecular target: GlcNAc(b1-3)Gal(b1-4)GlcNAc(b1-3)GalNAc
# How it was run: as §1
# [17] = molecular target: GlcNAc(b1-3)Gal(b1-4)GlcNAc(b1-3)[GlcNAc(b1-3)Gal(b1-4)GlcNAc(b1-3)]GalNAc
# How it was run: as §1
# [18] = molecular target: GlcNAc(b1-3)Gal(b1-4)GlcNAc(b1-6)[Gal(b1-3)]GalNAc
# How it was run: as §1
# [19] = molecular target: GlcNAc(b1-3)Gal(b1-4)GlcNAc(b1-6)[GlcNAc(b1-3)Gal(b1-3)]GalNAc
# How it was run: as §1
# [20] = molecular target: GlcNAc(b1-3)Gal(b1-4)GlcNAc(b1-6)[GlcNAc(b1-3)]Gal(b1-4)GlcNAc
# How it was run: as §1
# GlcNAc(b1-3)GalNAc = molecular target: GlcNAc(b1-3)GalNAc
# How it was run: as §1
# GlcNAc(b1-3)Man = molecular target: GlcNAc(b1-3)Man
# How it was run: as §1
# [21] = molecular target: GlcNAc(b1-3)[GlcNAc(b1-4)][GlcNAc(b1-6)]GlcNAc
# How it was run: as §1
# [22] = molecular target: GlcNAc(b1-3)[GlcNAc(b1-6)]Gal(b1-4)GlcNAc
# How it was run: as §1
# [23] = molecular target: GlcNAc(b1-3)[GlcNAc(b1-6)]GalNAc
# How it was run: as §1
# [24] = molecular target: GlcNAc(b1-4)Gal(b1-4)GlcNAc
# How it was run: as §1
# GlcNAc(b1-4)GlcNAc = molecular target: GlcNAc(b1-4)GlcNAc
# How it was run: as §1
# [25] = molecular target: GlcNAc(b1-4)GlcNAc(b1-4)GlcNAc
# How it was run: as §1
# [26] = molecular target: GlcNAc(b1-4)GlcNAc(b1-4)GlcNAc(b1-4)GlcNAc(b1-4)GlcNAc
# How it was run: as §1
# [27] = molecular target: GlcNAc(b1-4)GlcNAc(b1-4)GlcNAc(b1-4)GlcNAc(b1-4)GlcNAc(b1-4)GlcNAc
# How it was run: as §1
# [28] = molecular target: GlcNAc(b1-4)[GlcNAc(b1-6)]GalNAc
# How it was run: as §1
# [29] = molecular target: GlcNAc(b1-6)Gal(b1-4)GlcNAc
# How it was run: as §1
# GlcNAc(b1-6)GalNAc = molecular target: GlcNAc(b1-6)GalNAc
# How it was run: as §1
# [30] = molecular target: GlcNAc6S(b1-3)Gal(b1-4)GlcNAc
# How it was run: as §1
# Kdn(a2-3)Gal(b1-3)GalNAc = molecular target: Kdn(a2-3)Gal(b1-3)GalNAc
# How it was run: as §1
# Kdn(a2-3)Gal(b1-3)GlcNAc = molecular target: Kdn(a2-3)Gal(b1-3)GlcNAc
# How it was run: as §1
# Kdn(a2-3)Gal(b1-4)Glc = molecular target: Kdn(a2-3)Gal(b1-4)Glc
# How it was run: as §1
# Kdn(a2-3)Gal(b1-4)GlcNAc = molecular target: Kdn(a2-3)Gal(b1-4)GlcNAc
# How it was run: as §1
# [31] = molecular target: Kdn(a2-3)Gal(b1-4)[Fuc(a1-3)]GlcNAc
# How it was run: as §1
# Kdn(a2-6)Gal(b1-4)GlcNAc = molecular target: Kdn(a2-6)Gal(b1-4)GlcNAc
# How it was run: as §1
# [32] = molecular target: Man(a1-2)Man(a1-2)Man(a1-3)Man
# How it was run: as §1
# [33] = molecular target: Man(a1-2)Man(a1-2)Man(a1-6)[Man(a1-3)]Man
# How it was run: as §1
# Man(a1-2)Man(a1-3)Man = molecular target: Man(a1-2)Man(a1-3)Man
# How it was run: as §1
# [34] = molecular target: Man(a1-2)Man(a1-3)[Man(a1-2)Man(a1-6)]Man
# How it was run: as §1
binder,measurement,setting,value
"FliC (Pseudomonas aeruginosa), P72151 (protein) MALTVNTNIASLNTQRNLNASSNDLNTSLQRLTTGYRINSAKDDAAGLQISNRLSNQISGLNVATRNANDGISLAQTAEGALQQSTNILQRIRDLALQSANGSNSDADRAALQKEVAAQQAELTRISDTTTFGGRKLLDGSFGTTSFQVGSNAYETIDISLQNASASAIGSYQVGSNGAGTVASVAGTATASGIASGTVNLVGGGQVKNIAIAAGDSAKAIAEKMDGAIPNLSARARTVFTADVSGVTGGSLNFDVTVGSNTVSLAGVTSTQDLADQLNSNSSKLGITASINDKGVLTITSATGENVKFGAQTGTATAGQVAVKVQGSDGKFEAAAKNVVAAGTAATTTIVTGYVQLNSPTAYSVSGTGTQASQVFGNASAAQKSSVASVDISTADGAQNAIAVVDNALAAIDAQRADLGAVQNRFKNTIDNLTNISENATNARSRIKDTDFAAETAALSKNQVLQQAGTAILAQANQLPQAVLSLLR",glycan array binding signal (z-score),GlcNAc(b1-3)Gal(b1-4)Glc,-0.164
same,glycan array binding signal (z-score),[1],-0.176
same,glycan array binding signal (z-score),[2],-0.111
same,glycan array binding signal (z-score),[3],-0.182
same,glycan array binding signal (z-score),[4],-0.135
same,glycan array binding signal (z-score),[5],-0.119
same,glycan array binding signal (z-score),[6],0.422
same,glycan array binding signal (z-score),[7],-0.044
same,glycan array binding signal (z-score),[8],-0.173
same,glycan array binding signal (z-score),[9],-0.032
same,glycan array binding signal (z-score),[10],-0.177
same,glycan array binding signal (z-score),[11],-0.145
same,glycan array binding signal (z-score),[12],0.453
same,glycan array binding signal (z-score),[13],-0.055
same,glycan array binding signal (z-score),[14],0.094
same,glycan array binding signal (z-score),[15],-0.143
same,glycan array binding signal (z-score),[16],-0.224
same,glycan array binding signal (z-score),[17],0.006
same,glycan array binding signal (z-score),[18],-0.093
same,glycan array binding signal (z-score),[19],-0.022
same,glycan array binding signal (z-score),[20],-0.238
same,glycan array binding signal (z-score),GlcNAc(b1-3)GalNAc,-0.167
same,glycan array binding signal (z-score),GlcNAc(b1-3)Man,-0.189
same,glycan array binding signal (z-score),[21],-0.203
same,glycan array binding signal (z-score),[22],-0.061
same,glycan array binding signal (z-score),[23],-0.16
same,glycan array binding signal (z-score),[24],-0.139
same,glycan array binding signal (z-score),GlcNAc(b1-4)GlcNAc,-0.232
same,glycan array binding signal (z-score),[25],-0.243
same,glycan array binding signal (z-score),[26],-0.055
same,glycan array binding signal (z-score),[27],-0.199
same,glycan array binding signal (z-score),[28],-0.148
same,glycan array binding signal (z-score),[29],-0.196
same,glycan array binding signal (z-score),GlcNAc(b1-6)GalNAc,-0.066
same,glycan array binding signal (z-score),[30],-0.111
same,glycan array binding signal (z-score),Kdn(a2-3)Gal(b1-3)GalNAc,-0.222
same,glycan array binding signal (z-score),Kdn(a2-3)Gal(b1-3)GlcNAc,-0.132
same,glycan array binding signal (z-score),Kdn(a2-3)Gal(b1-4)Glc,-0.115
same,glycan array binding signal (z-score),Kdn(a2-3)Gal(b1-4)GlcNAc,-0.064
same,glycan array binding signal (z-score),[31],-0.144
same,glycan array binding signal (z-score),Kdn(a2-6)Gal(b1-4)GlcNAc,-0.166
same,glycan array binding signal (z-score),[32],0.029
same,glycan array binding signal (z-score),[33],-0.175
same,glycan array binding signal (z-score),Man(a1-2)Man(a1-3)Man,-0.16
same,glycan array binding signal (z-score),[34],-0.155
